According to publication PMC4336329 (PLoS ONE, 2015):
Screen size: about 310,000 compounds; about 14,000 (4.5%) showed an effect of 50% or more. The effect is printed as a negative number. Some of the results follow.

The molecules below were run against human ether-à-go-go-related gene (hERG) potassium channel (human, UniProt Q12809) (assay: primary screen, population patch clamp on CHO cells stably expressing hERG).
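Also: peak tail current of the secondary pulse compared with the same well before compound.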

Sequence of human ether-à-go-go-related gene (hERG) potassium channel (Q12809 whole entry, looked up): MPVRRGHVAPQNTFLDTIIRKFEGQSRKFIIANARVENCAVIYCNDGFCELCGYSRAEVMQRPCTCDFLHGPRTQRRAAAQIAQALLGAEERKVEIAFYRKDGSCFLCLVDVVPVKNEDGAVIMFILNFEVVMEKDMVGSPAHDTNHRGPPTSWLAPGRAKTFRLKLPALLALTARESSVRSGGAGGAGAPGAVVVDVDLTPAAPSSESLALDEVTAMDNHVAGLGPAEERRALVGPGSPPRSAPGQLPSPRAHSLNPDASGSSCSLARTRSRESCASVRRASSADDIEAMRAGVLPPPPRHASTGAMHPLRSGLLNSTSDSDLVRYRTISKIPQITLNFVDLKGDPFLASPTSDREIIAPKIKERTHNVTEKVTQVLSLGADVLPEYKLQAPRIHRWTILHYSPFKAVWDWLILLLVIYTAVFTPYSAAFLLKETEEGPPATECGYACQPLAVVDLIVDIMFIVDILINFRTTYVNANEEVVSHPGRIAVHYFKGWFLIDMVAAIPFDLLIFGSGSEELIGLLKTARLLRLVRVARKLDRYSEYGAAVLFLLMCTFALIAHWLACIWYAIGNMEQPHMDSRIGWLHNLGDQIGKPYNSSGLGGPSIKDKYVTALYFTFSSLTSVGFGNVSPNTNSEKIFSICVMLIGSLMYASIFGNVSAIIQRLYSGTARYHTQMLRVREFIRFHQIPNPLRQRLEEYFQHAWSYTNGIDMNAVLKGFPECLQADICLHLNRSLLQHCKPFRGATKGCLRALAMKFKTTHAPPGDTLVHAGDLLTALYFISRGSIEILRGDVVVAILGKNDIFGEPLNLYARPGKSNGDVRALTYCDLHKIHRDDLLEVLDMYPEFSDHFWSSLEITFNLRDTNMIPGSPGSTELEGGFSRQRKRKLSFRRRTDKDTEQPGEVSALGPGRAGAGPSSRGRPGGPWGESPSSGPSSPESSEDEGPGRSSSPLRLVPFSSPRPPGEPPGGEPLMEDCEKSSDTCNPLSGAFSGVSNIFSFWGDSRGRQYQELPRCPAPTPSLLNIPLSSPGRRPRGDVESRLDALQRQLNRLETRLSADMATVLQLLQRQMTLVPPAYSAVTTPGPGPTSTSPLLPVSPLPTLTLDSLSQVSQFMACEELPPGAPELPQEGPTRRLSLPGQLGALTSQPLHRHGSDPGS

Compound	hERG current change (%, negative = inhibition) at 10uM
CCCOc1ccc(C(C(=O)OCCN(CC)CC)c2ccccc2)cc1.O=C(O)C(=O)O (stereo not shown)	-43%
CCN1CCN(C(=O)/C=C\C(=O)O)CC1	11.3%
C[C@H](NC(=O)c1nc[nH]c1C(=O)NCc1ccccc1)C(=O)OCc1ccccc1	3.6%
COc1ccc(C(C)(C)C)cc1NC(=O)c1ccc2c(c1)SC1=NS(=O)(=O)CCN12	14.3%
CCN(CC)CC.CCc1ccc(-n2c(=S)sc3c(=O)n(-c4ccccc4OC)c(=S)[nH]c32)cc1	9.57%
Cc1cc(NS(=O)(=O)c2cn(C)nc2C)no1	23.6%
O=C(O)CCCNc1ccc(S(=O)(=O)Nc2ccccc2C(=O)O)cc1C(=O)O	4.01%
O=c1[nH]c(=O)n(CC2CCCO2)c(O)c1/C=C1\C=Nc2ccccc21 (stereo not shown) [26662360]	-1.51%
COc1cc(C(C(=O)NC2CCCCC2)N(CCN2CCOCC2)C(=O)C2COc3ccccc3O2)cc(OC)c1OC (stereo not shown)	37.9%
Cn1c(N/N=C/c2ccccc2)nc2sc3c(c2c1=O)CCC3	2.04%
O=c1c(-c2nnc(SCc3ccc(Cl)c(Cl)c3)o2)cccn1Cc1ccccc1	1.6%
O=c1cc([O-])nc(SCc2ccccc2)n1-c1ccccc1.[K+]	11.4%
CC(=O)Nc1ccc(S(=O)(=O)N2CCC(Oc3ccc(-n4cnnn4)cc3)CC2)cc1	-19.4%
Cc1ccc(OCCC(=O)Nc2ccc3c(c2)OCO3)cc1	0.269%
CCCSc1nc(C)cc(C)c1S(=O)(=O)c1ccccc1C	13.6%
Nc1ccc2c(c1)C(=O)N(CC1CCCO1)C2=O (stereo not shown)	-0.477%
COc1ccc(C)cc1NC(=O)CN1C(=O)C(=O)N(C2CCCC2)C1=O	9.44%
COc1ccccc1NC1=C(C)C(=O)CC1	15.9%
CCN(CC)S(=O)(=O)c1ccc(O)c(C(=O)OCC(=O)Nc2cc(C)c(C)cc2[N+](=O)[O-])c1	-4.8%
CC(C)C[C@@H](C(=O)N[C@@H](C(=O)O)c1ccccc1)N1C(=O)N2CCc3c([nH]c4ccccc34)[C@@]2(C)C1=O	-6.67%
COC(=O)c1ccc(Oc2nc(NC(C)C)nc(SC)n2)cc1	0.243%
O=C(O)c1nn(-c2ccc(Cl)cc2)ccc1=O	4.43%

Compound	hERG current change (%, negative = inhibition) at 10uM
CCOC(=O)C[C@H]1c2cc(F)ccc2S(=O)(=O)N1C1CCCCC1	-3.26%
Cn1c(CNC(=O)c2ccccc2F)nnc1SCC(=O)Nc1nnc(C2CC2)s1	6.25%
CCN1CCN(CCNC(=O)CCc2c(C)c3c(C)nn(-c4ccccc4)c3n(C)c2=O)CC1	-31.2%
CCCCCCOc1ccc(N2C(=O)CC(N3CCC(C(=O)OCC)CC3)C2=O)cc1 (stereo not shown)	6.75%
Cc1ccc(NC(=O)c2ccc(NS(=O)(=O)c3cccc4cccnc34)cc2)cc1	0.33%
COc1ccccc1C(=O)N1CCN(c2ccc(N3CCOCC3)nn2)CC1	7.02%
CCC(CC)NC(=O)COC(=O)c1cccc(C)c1O	2.27%
CC(C)c1ccc(NC(=O)CCCN2C(=S)NC(C)(C)CC2C)cc1 (stereo not shown)	-8.19%
CN(C)C(CNC(=O)CCc1nc2ccccc2s1)c1ccccc1 (stereo not shown)	0.219%
Cc1ccc(S(=O)(=O)N2CC(O)CC2C(=O)NCc2ccc3c(c2)OCO3)cc1 (stereo not shown)	2.29%
CN(c1ccccc1)S(=O)(=O)c1ccc(Cl)c(C(=O)NC2=NCCS2)c1	9.14%
Cc1ccccc1NC(=O)Cc1nc(CSc2nnc(-c3ccc4c(c3)OCO4)o2)cs1	2.41%
CCS(=O)(=O)N1CCC(C(=O)NCc2cccs2)CC1	6.06%
Cc1cc2c(c(=O)n1Cc1ccccn1)C(C(C)C)C(C#N)=C(N)O2 (stereo not shown)	-0.366%
O=[N+]([O-])NC1=NCN(Cc2ccco2)CN1Cc1ccco1	5.47%
O=C(O)CCC(=O)N1CCc2cc(S(=O)(=O)NC3CCCC3)ccc21	8.88%
c1ccc2c(c1)OCCc1c-2[nH]c2ccccc12	7.5%
O=C(Nc1cccc(S(=O)(=O)N2CCOCC2)c1)c1ccccc1[N+](=O)[O-]	0.195%
O=C(Nc1ncc2c(n1)CC(c1ccco1)CC2=O)c1ccccc1 (stereo not shown)	-7.67%
O=C(O)c1cc(Cl)c(Cl)cc1C(=O)N(Cc1ccccc1)Cc1ccccc1	13.7%
CCc1ccc2[nH]c(=O)c(CN(Cc3ccc(F)cc3)C(c3nnnn3CCN3CCOCC3)C(C)C)cc2c1 (stereo not shown)	-18.4%
